Data reported in PMC9911399, “Two distinct binding modes provide the RNA-binding protein RbFox with extraordinary sequence specificity”.
Changes are numbered by the printed parent chain; changes in the protein carry UniProt numbers. The list shows a part of the results.

T1: RBFOX1 RRM (Homo sapiens, UniProt Q9NWB1 109-208)
T1 sequence: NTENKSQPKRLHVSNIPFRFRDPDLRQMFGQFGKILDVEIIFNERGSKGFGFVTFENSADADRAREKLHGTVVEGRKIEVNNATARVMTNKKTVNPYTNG

B1: UAUCGCU (DNA:RNA)
RNA: GGGAGACCGGAAUUCAGAUUGUCCUAUCGCUUUAAAUCCCGUCGUAGCCACCA
DNA 1: CAATCTGAATTCCGGTCTCCC
DNA 2: TGGTGGCTACGACGGGATT
B2: GACCUUC (DNA:RNA)
RNA: B1 RNA with U25G, U27C, G29U, C30U, U31C
DNA 1: CAATCTGAATTCCGGTCTCCC
DNA 2: TGGTGGCTACGACGGGATT
B3: ACUAUUC (DNA:RNA)
RNA: B1 RNA with U25A, A26C, C28A, G29U, C30U, U31C
DNA 1: CAATCTGAATTCCGGTCTCCC
DNA 2: TGGTGGCTACGACGGGATT
B4: UAUGACU (DNA:RNA)
RNA: B1 RNA with C28G, G29A
DNA 1: CAATCTGAATTCCGGTCTCCC
DNA 2: TGGTGGCTACGACGGGATT
B5: CCACUAC (DNA:RNA)
RNA: B1 RNA with U25C, A26C, U27A, G29U, C30A, U31C
DNA 1: CAATCTGAATTCCGGTCTCCC
DNA 2: TGGTGGCTACGACGGGATT
B6: GUUUUCU (DNA:RNA)
RNA: B1 RNA with U25G, A26U, C28U, G29U
DNA 1: CAATCTGAATTCCGGTCTCCC
DNA 2: TGGTGGCTACGACGGGATT
B7: AUCUUGC (DNA:RNA)
RNA: GGGAGACCGGAAUUCAGAUUGUCCAUCUUGCUUAAAUCCCGUCGUAGCCACCA
DNA 1: CAATCTGAATTCCGGTCTCCC
DNA 2: TGGTGGCTACGACGGGATT
B8: CUGAUAC (DNA:RNA)
RNA: B7 RNA with A25C, C27G, U28A, G30A
DNA 1: CAATCTGAATTCCGGTCTCCC
DNA 2: TGGTGGCTACGACGGGATT
B9: UGGGAGU (DNA:RNA)
RNA: B1 RNA with A26G, U27G, C28G, G29A, C30G
DNA 1: CAATCTGAATTCCGGTCTCCC
DNA 2: TGGTGGCTACGACGGGATT
B10: UUGUUAG (DNA:RNA)
RNA: B7 RNA with A25U, C27G, G30A, C31G
DNA 1: CAATCTGAATTCCGGTCTCCC
DNA 2: TGGTGGCTACGACGGGATT
B11: CCGACAG (DNA:RNA)
RNA: GGGAGACCGGAAUUCAGAUUGUCCCCGACAGUUAAAUCCCGUCGUAGCCACCA
DNA 1: CAATCTGAATTCCGGTCTCCC
DNA 2: TGGTGGCTACGACGGGATT
B12: GACGUGA (DNA:RNA)
RNA: B7 RNA with A25G, U26A, U28G, C31A
DNA 1: CAATCTGAATTCCGGTCTCCC
DNA 2: TGGTGGCTACGACGGGATT
B13: CACGUGG (DNA:RNA)
RNA: B7 RNA with A25C, U26A, U28G, C31G
DNA 1: CAATCTGAATTCCGGTCTCCC
DNA 2: TGGTGGCTACGACGGGATT
B14: GGACCAA (DNA:RNA)
RNA: B11 RNA with C25G, C26G, G27A, A28C, G31A
DNA 1: CAATCTGAATTCCGGTCTCCC
DNA 2: TGGTGGCTACGACGGGATT
B15: GUACGGG (DNA:RNA)
RNA: B7 RNA with A25G, C27A, U28C, U29G, C31G
DNA 1: CAATCTGAATTCCGGTCTCCC
DNA 2: TGGTGGCTACGACGGGATT
B16: UGCAGGC (DNA:RNA)
RNA: B7 RNA with A25U, U26G, U28A, U29G
DNA 1: CAATCTGAATTCCGGTCTCCC
DNA 2: TGGTGGCTACGACGGGATT
B17: GGUUGAA (DNA:RNA)
RNA: B1 RNA with U25G, A26G, C28U, C30A, U31A
DNA 1: CAATCTGAATTCCGGTCTCCC
DNA 2: TGGTGGCTACGACGGGATT
B18: CAUGAGA (DNA:RNA)
RNA: B1 RNA with U25C, C28G, G29A, C30G, U31A
DNA 1: CAATCTGAATTCCGGTCTCCC
DNA 2: TGGTGGCTACGACGGGATT
B19: GGCCAUG (DNA:RNA)
RNA: B7 RNA with A25G, U26G, U28C, U29A, G30U, C31G
DNA 1: CAATCTGAATTCCGGTCTCCC
DNA 2: TGGTGGCTACGACGGGATT
B20: CAUAAGG (DNA:RNA)
RNA: B11 RNA with C26A, G27U, C29A, A30G
DNA 1: CAATCTGAATTCCGGTCTCCC
DNA 2: TGGTGGCTACGACGGGATT
B21: GCCCAUC (DNA:RNA)
RNA: B7 RNA with A25G, U26C, U28C, U29A, G30U
DNA 1: CAATCTGAATTCCGGTCTCCC
DNA 2: TGGTGGCTACGACGGGATT
B22: CUUAGAG (DNA:RNA)
RNA: B11 RNA with C26U, G27U, C29G
DNA 1: CAATCTGAATTCCGGTCTCCC
DNA 2: TGGTGGCTACGACGGGATT
B23: CUACGGA (DNA:RNA)
RNA: B7 RNA with A25C, C27A, U28C, U29G, C31A
DNA 1: CAATCTGAATTCCGGTCTCCC
DNA 2: TGGTGGCTACGACGGGATT
B24: CUUCGUA (DNA:RNA)
RNA: B1 RNA with U25C, A26U, C30U, U31A
DNA 1: CAATCTGAATTCCGGTCTCCC
DNA 2: TGGTGGCTACGACGGGATT
B25: ACGGUCG (DNA:RNA)
RNA: B11 RNA with C25A, A28G, C29U, A30C
DNA 1: CAATCTGAATTCCGGTCTCCC
DNA 2: TGGTGGCTACGACGGGATT
B26: UGCUCCC (DNA:RNA)
RNA: B7 RNA with A25U, U26G, U29C, G30C
DNA 1: CAATCTGAATTCCGGTCTCCC
DNA 2: TGGTGGCTACGACGGGATT
B27: UCCAGCG (DNA:RNA)
RNA: B11 RNA with C25U, G27C, C29G, A30C
DNA 1: CAATCTGAATTCCGGTCTCCC
DNA 2: TGGTGGCTACGACGGGATT
B28: GUCCCGA (DNA:RNA)
RNA: B7 RNA with A25G, U28C, U29C, C31A
DNA 1: CAATCTGAATTCCGGTCTCCC
DNA 2: TGGTGGCTACGACGGGATT
B29: UGGUAUC (DNA:RNA)
RNA: B7 RNA with A25U, U26G, C27G, U29A, G30U
DNA 1: CAATCTGAATTCCGGTCTCCC
DNA 2: TGGTGGCTACGACGGGATT
B30: UACGGCC (DNA:RNA)
RNA: B1 RNA with U27C, C28G, U31C
DNA 1: CAATCTGAATTCCGGTCTCCC
DNA 2: TGGTGGCTACGACGGGATT
B31: CGAGUAA (DNA:RNA)
RNA: B11 RNA with C26G, G27A, A28G, C29U, G31A
DNA 1: CAATCTGAATTCCGGTCTCCC
DNA 2: TGGTGGCTACGACGGGATT

These binders were tested against T1, RBFOX1 RRM (assay: EMSA; HiTS-Eq, 1 nM pool, 10 min; buffer printed only for the single-RNA assays: 10 mM Tris pH 7.5, 150 mM NaCl, 3.4 mM EDTA, 0.001% NP-40, 30 C). Conditions: tags: His6 N-terminal (pET28a); label: 5' 32P.
Outline: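 Relative association constants, normalised to the cognate motif, were derived by comparing read counts of each RNA species with those of the control reaction. The RNA sequenced was the free fraction, separated by 8% native PAGE after a 10 min equilibration in 50 µL of 1 nM 5′-radiolabelled RNA (7 randomized nucleotides) with increasing concentrations of purified wild-type or mutant RbFox RRM.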

In order of falling binding signal:
1. B9  0.0357 KA relative to UGCAUGU
2. B10  0.0257 KA relative to UGCAUGU
3. B6  0.02 KA relative to UGCAUGU
4. B16  0.0192 KA relative to UGCAUGU
5. B29  0.0158 KA relative to UGCAUGU
6. B1  0.0147 KA relative to UGCAUGU
7. B7  0.0138 KA relative to UGCAUGU
8. B19  0.013 KA relative to UGCAUGU
9. B25  0.0129 KA relative to UGCAUGU
10. B12  0.0121 KA relative to UGCAUGU
11. B30  0.012 KA relative to UGCAUGU
12. B18  0.0117 KA relative to UGCAUGU
13. B22  0.0116 KA relative to UGCAUGU
14. B17  0.0102 KA relative to UGCAUGU
15. B2  0.0101 KA relative to UGCAUGU
16. B8  0.00951 KA relative to UGCAUGU
17. B15  0.00942 KA relative to UGCAUGU
18. B4  0.00939 KA relative to UGCAUGU
19. B11  0.0084 KA relative to UGCAUGU
20. B21  0.00823 KA relative to UGCAUGU
21. B20  0.0076 KA relative to UGCAUGU
22. B24  0.00744 KA relative to UGCAUGU
23. B31  0.00659 KA relative to UGCAUGU
24. B23  0.00611 KA relative to UGCAUGU
25. B27  0.00606 KA relative to UGCAUGU
26. B28  0.00559 KA relative to UGCAUGU
27. B13  0.00501 KA relative to UGCAUGU
28. B14  0.00354 KA relative to UGCAUGU
29. B26  0.00242 KA relative to UGCAUGU
30. B3  0.00183 KA relative to UGCAUGU
31. B5  0.000125 KA relative to UGCAUGU
